According to the supplement of paper PMC12632987:
Whole data set: some 2,300 sequences, median “median log2 fold change of GCK-ALFA target abundance (FLAG IP / Myc IP barcode read proportion)” near 0.095, cut for the lowest 2% near -0.47. Some of the results follow.

B1: LC3A_132_295 (protein)
chain: MEEKAEKYLKELKALIAAAKANIDDDAKVTALLKEIEAKIEEAEKELTPEEVAKVFEEVADELWALSQVFDAAGKEQLALEADGLAIEAASLALRAKEKI
B2: LC3A_28_710 (protein)
chain: MEIEENIKKALEEAKEAAEKGEEVVIEIKIPGDATEEDIEKVIKALEEIAEILKDLPFAAIIVDVDGKVKQEHIDKIADKAEEIEKKYPNVTVIIALEEE
B3: LC3A_3_1378 (protein)
chain: GEEMLEEARKILEAQGRSEEVIEAALETLKALLEKGYFEAAKTLIELLKESEDLSDEELLWFFEEIKRAVTEEDLSEEELIELIKEEFRIAKSAEEIIEL
B4: LC3A_free_26_2132 (protein)
chain: EEFIDIYNLDRAEELLEKIIKELEKYPEKYKELKEKAKEAKKLVKKETLESLKKAKEILEEIIKELEKREDEDPELMKKLKELAEEAKEHIEEVIEIMES
B5: LC3A_28_1308 (protein)
chain: SAIDERFAAAIAEARAAAAAGEPVVVTVDITAEEAEEELDTILAKLEELAAEASKVPDAVIIVDVDEKVKQENLTKIAKKAEELEKKYPNVTVIIAISDE
B6: LC3A_28_1159 (protein)
chain: SAIEENIERAREEAERAIERGEPTVITIKIGGDATEEDIELAIEALEELARLGQEYGLIDIVIDVDGDVKQEHIDLIADKAEEIEKKYPKVNIIIALDDE
B7: LC3A_free_26_2151 (protein)
chain: DEFIDIYHLDKAIEKLEEALKLAEEDPNASEELKKLVKEALEEVKKETLEGLKKAAELIKKALKLVEADPSLDEETKAKLAKLLKEALKEVEENIEIMES
B8: LC3A_3_1904 (protein)
chain: SEELIEKTLAYLKEKGASEETLEKARELLELLAERGLEEELKLVAESIKRLADLSVEKAAEFIERLLKFAKADKRPKEEFAKAMKEETRTLTAEAEIIEL
B9: LC3A_147_460 (protein)
chain: YLVTVDIDILTKNAEKEIIEDFKELAEELRAEGYEVELEIEVEQLDPNTTFIHVRIKVKAETKEEAEEAANKILDRIDEIEEKHKEDILGSLISVEIEEE
B10: LC3A_141_375 (protein)
chain: TTVVIEREKELNTIEEAIELIEEVEKEVLAALAKLDGKPVKVTIKVTITKKTTGEVKEYEDTVDGSPEDVELAMEGFMVEIASEVLKDPVKVTIKVTLEA
B11: LC3A_3_1574 (protein)
chain: SEARLAAMLARLREAGFSEAVIAAAREALEALLAKGAEEAAELVLETLLELKDAPDELLIDLLNDVLELVKTDKGSLEELTEKVKELISTYRSEAEIIEL
B12: LC3A_23_603 (protein)
chain: KYLVELEVSVITEPEEAAAKEKALLEKFEEIFEKYKDKIVEKEVKVTREALPDGRTFLEIRVKIVIDGTEEEALEIANELEDAAAEVVPDGVISREVEKL
B13: LC3A_102_128 (protein)
chain: NVEELKREKLREVEEEVRKLLEKDESLSEEEKEKVLRLALELAEHRLRNAEIEIQHGFSDIEEEDKALEALEKLEEISPEIAEKVREIVERAVEEFREEL
B14: LC3A_free_46_2388 (protein)
chain: ARGEIHALASPTDLETAKKLAEEARRAVEEVAKEYGVKVEVKVEIIKNEDGKYEVYIDVTIEGDDLDTVEAAADAIEERLREIAEKYGVKLASIISFEET
B15: LC3A_59_2027 (protein)
chain: SAELDAYIKKIIENKDDLEKLAETLLEAFTAVKDDPEKLAELKEKVVKALVESGLLSEELAKELVEEIEEIVDTEKDKEEALKKILEELRVAINENEIIE
B16: LC3A_3_1547 (protein)
chain: MEELREELLAELREAGASDEVLAAVAAAFDALIERGYERALEVLARETRELIGLPDELLLDFAEEVLETIETEDLNEEEVIEEIKRIARTTRNEAEIEEL
B17: LC3A_13_332 (protein)
chain: TITITAETPEELRAKTTAAIAAHPGEKLVITATVKDEEEADAVAEVLGELLKQAKAAGNTVDITLVGPPEYTNYAAVLIGEELAENAPDLKVDITTEEAP
B18: LC3A_17_567 (protein)
chain: SAEIEKAYAETLKTLKEAAEFAKTVDEEAAKKLEELIKKVEEAAKTGDPKTIAEVSAQAALEAADILESLKSPDPEKKEHLIMEMEGQAIEWESLLLKLE
B19: LC3A_28_1217 (protein)
chain: SEIDKELERARKEAEKAKKEGKEALLEIKIPSSATLEDVEYAMERLEEIVEEVKDLPRIDIIISFEAGVSQEVIDAAAEGGERIEKKFPNVTVIIALDEE
B20: LC3A_free_8_2450 (protein)
chain: SKEEIVKTALEGLDKLEEELVKKAKELGLSRLDILELELEIGEAIAELISLSDASPEEIIETTKEGLERIIKLAKELGEELEKLAKKGAEELLKKLEELK
B21: LC3A_free_46_2320 (protein)
chain: YKANIDIDLFGVDKEKAEAAVKEIKEKIKEIAKKYNLELEIEVEIEKNEDGTYYVNINITLKGENKEDIEKAVNEIIDSIEEIAEKYGANYVISYEIEEE
B22: LC3A_28_762 (protein)
chain: ATPEERVAAAIAAAREAKAAGVSDVITLTVPDGATAADVDIYIAGLREIAEILRDMENAAIVIDVEGGVAADNLQRLVDEAERIEEEYPNVTVIIALDEE
B23: LC3A_free_12_2126 (protein)
chain: SLEEMEKEGALIEAEYHRDDEAALTALLVSLIDAGKEEIAVEVFRYLAFELKLSEATLTAIAKAMMANPKLTPEAKAKILAIAKEAGYAETAAAIEAAMA
B24: LC3A_28_827 (protein)
chain: SHIEERMKKFEEEVNEAVEKGESATFTVTITSEDTLEEVKEIMEKVEELAEKAKDVPNIAIIIDLDGPISQEKLNLILEKADEIEEKYPNVSVIVALPED
B25: LC3A_147_434 (protein)
chain: YKVKVYIDILSKNAEEEILKAVKELVEELKKKGYKVKLKVEVEKLEDGTTYIRIEIEVEAKTEEEAQEAADYIIDKFDEIEEELKDKILGSIISVEIIEE
B26: LC3A_23_613 (protein)
chain: MYRVTVEADFIAEPEEARAKAEALRAAIEELLEKNRDIVEESRIEVEFEELPDGRTFLTVRVTVVVRGTREEAEALRNELVSIVDEVLPDAVISSEVEEL
B27: LC3A_28_1176 (protein)
chain: SALDESIAKALAEAKEAAAAKEPAAVTLTVPGTTTPEETDRAIATIEEIAKLLKGVKGSAIIVDVEAGVSQENLNRLMDAGERVEKEYPDVSVIFALDED
B28: LC3A_3_1517 (protein)
chain: MEELIEETLKELEEAGKSEEVIEAVRRALEALKERGYEEALETFAELMKELLDASDEILLWFAEEALRLVEEEDLDEEELIEELKRLASVAKSESEIIEL
B29: LC3A_45_1985 (protein)
chain: MWRATVDILVPREDGEAALAAIKAAMEELQARYGPELEFNTELLDASYEATKDEPEVYLEVEITAPDEQTALDAADELVDRLEAALGRPVAAMISTEEVP

The binders below were run against MAP1LC3A, Q9H492 (assay: median log2 fold change of GCK-ALFA target abundance (FLAG IP / Myc IP barcode read proportion) (log2 ratio); each designed protein is fused to an ALFA-tag nanobody in HEK293 cells to bring the named protein to FLAG-tagged glucokinase (GCK); Myc marks an untargeted standard; higher = target protein stabilised (more abundant)). Conditions: target protein: 3xFLAG-MCP-GCK-ALFA reporter; HEK293 landing pad (RPLP).
How it was run: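 An ALFA-nanobody-fused binder library was recombined into HEK293 landing-pad cells and induced with 2 μg mL^−1 doxycycline. Cells were transfected with a plasmid expressing a FLAG-tagged target and a Myc-tagged standard. After 48 h, lysates underwent anti-FLAG and anti-Myc immunoprecipitation, and circular RNA barcodes were reverse transcribed, amplified and sequenced. Target abundance is the per-binder median log2 ratio of FLAG to Myc barcode read proportions. Barcodes needed ≥10^−7 proportion in both replicates, binders ≥3 barcodes per replicate, and a 10^−6 pseudocount was added; the two replicates were pooled.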

Binder | median log2 fold change
B1 | 0.0471
B2 | -0.149
B3 | 0.0895
B4 | -0.0992
B5 | 0.124
B6 | -0.116
B7 | 0.093
B8 | 0.242
B9 | -0.416
B10 | -0.0874
B11 | 0.119
B12 | 0.0328
B13 | 0.236
B14 | 0.0487
B15 | 0.297
B16 | -0.0616
B17 | 0.182
B18 | 0.303
B19 | 0.24
B20 | -0.101
B21 | -0.195
B22 | 0.086
B23 | 0.366
B24 | -0.269
B25 | 0.121
B26 | -0.00193
B27 | -0.37
B28 | 0.126
B29 | 0.0325
